# From the supplement of paper PMC3334620
# In all, about 33,000 sequences were measured (“E-score (-0.5 to 0.5)”: median about -0.017, highest 2% from about 0.3 on). The list shows a part of the results.
# Molecular target: T1, Sut1 (UniProt P53032)
# T1 sequence: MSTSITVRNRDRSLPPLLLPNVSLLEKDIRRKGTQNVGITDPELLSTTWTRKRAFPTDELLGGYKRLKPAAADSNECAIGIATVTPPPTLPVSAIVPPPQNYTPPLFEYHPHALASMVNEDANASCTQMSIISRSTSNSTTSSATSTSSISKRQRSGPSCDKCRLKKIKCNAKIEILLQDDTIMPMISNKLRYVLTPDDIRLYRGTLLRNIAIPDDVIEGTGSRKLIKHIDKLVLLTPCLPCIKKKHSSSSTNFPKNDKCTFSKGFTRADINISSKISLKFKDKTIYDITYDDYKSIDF
# Test: PBM E-score (8-mer binding enrichment) (E-score (-0.5 to 0.5)); higher = stronger / more preferred TF binding; most listed sequences are background and not binding sites
# Conditions: protein concentration: 200 nM; construct: GST-full length
# Procedure, shortened: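 Yeast transcription factors, full-length or as DNA-binding domains, were expressed with a GST tag using PURExpress in vitro transcription/translation. At about 100-200 nM they were applied to universal all-10-mer Agilent arrays, double-stranded by primer extension on fresh or once-stripped slides. Fluorescent anti-GST detected bound protein, and masliner normalised the scans. E-scores for ungapped eight-base words, pooled with reverse complements, came from the Universal PBM Analysis Suite.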
row,Sequence,PBM E-score
1,CACATTAC,0.0459
2,AAAATGGG,0.158
3,CAGCAAAC,-0.142
4,GATATGTA,0.22
5,CCCTACTA,-0.243
6,CGGCTCGC,0.0542
7,TTAGCGAA,0.0425
8,CATTGAAG,-0.0305
9,ACTTTTAT,0.267
10,GGGTAATA,-0.00685
11,ATCATTTG,0.162
12,TGGGTACA,-0.0505
13,TAGCGTGA,-0.0832
14,AATAAGAT,0.17
15,CGATACGA,-0.0883
16,ATGCTGAC,-0.0696
17,GAAGTAGA,0.12
18,ACAAGCAT,-0.138
19,AGCCACAG,-0.248
20,TCACTGCA,0.101
21,TAAACGGA,0.321
22,CGATGCTC,0.156
23,CCCCTACC,-0.258
24,ACAAAAAG,0.199
25,CAATTCCA,-0.032

row,Sequence,PBM E-score
1,CTTACTGA,-0.105
2,CGTTATGC,-0.106
3,CGGCCTAC,0.0389
4,ACTTTGTA,0.135
5,CCCGATAG,0.0429
6,ATCTACAC,0.0967
7,GTGCACAA,-0.0296
8,AGTACCGC,-0.0831
9,ATGGTCGG,0.0544
10,ATTGTCTG,0.0498
11,CAGAAAGC,0.0267
12,ACGTCGAA,-0.00337
13,GGTTTAAA,0.178
14,AAGTCCGT,0.487
15,CAATATAG,0.1
16,AGGCATAA,-0.0627
17,CTGCACTA,0.192
18,AACTCTGA,0.0904
19,AGATCTTG,-0.0225
20,ACTAGGAC,-0.095
21,GAAAGTGA,0.127
22,AACCAGAA,0.0654
23,AAATTACT,0.234
24,CTGCTAGC,-0.291
25,CTGAATTA,0.143

row,Sequence,PBM E-score
1,AGCGCAAT,0.0502
2,CCGACCAC,-0.114
3,TAGTAGGA,-0.0196
4,TCCAACAA,0.0199
5,ACTAACAA,0.0492
6,CGACGCCG,0.0167
7,AAAAGAGG,-0.0595
8,GAATTCGC,0.165
9,ATGCTCCA,-0.0644
10,AAGGACGA,-0.0622
11,CAATCTCG,-0.097
12,GACGTATC,-0.113
13,AGGTATAC,-0.0604
14,ACCGGGCC,-0.053
15,ACCGACAC,0.0514
16,GCTTTGAC,0.0882
17,AGGCCTCG,-0.194
18,AATATTCG,0.0876
19,AGATGACT,-0.13
20,GCAAACGC,-0.175
21,CCCTACCC,-0.251
22,GACGTGCA,-0.095
23,TGGGAAAA,-0.0944
24,CAATGCGC,-0.074
25,TCTCAGAA,-0.12

row,Sequence,PBM E-score
1,AATATTGA,0.122
2,AAGCATTA,0.0192
3,CTACGGGC,-0.206
4,TCAAGTGA,0.0149
5,ACTTCGCA,-0.132
6,ACACCGTA,-0.0843
7,CAGGTAGC,-0.194
8,CCTCATCC,-0.193
9,CTGGGGAA,-0.255
10,AGAACCTC,-0.0985
11,TAATTGTA,0.205
12,CCGTAGCG,-0.0307
13,ATCATCAC,-0.0468
14,GTTACATA,0.126
15,ACTTTGTG,0.0897
16,ACGCGGGA,0.0369
17,GCCTGCAC,-0.178
18,CGCCACGA,-0.0774
19,ACCAAATA,0.117
20,CTCTCATA,0.0812
21,GTTCGGTA,0.141
22,TGGCCGAA,0.106
23,AACGGATG,0.0106
24,CGTCTACA,-0.181
25,CATGACAC,0.135

row,Sequence,PBM E-score
1,CGATGCTA,0.0352
2,CAGGGTGA,-0.156
3,CGTGCGCA,-0.0836
4,CCCTAAGC,-0.245
5,CCAACATA,0.226
6,CAAGTCTG,-0.217
7,AGTCGCTC,-0.0692
8,ATCTGAAC,0.0467
9,ACTTCTGG,-0.16
10,CAGCATTC,-0.193
11,TAACTTGA,0.161
12,CGTCTTCC,-0.0771
13,GCCATCAA,-0.16
14,CCTACGCA,-0.132
15,AGCCTACT,-0.134
16,ATCGTCCC,0.00149
17,AAGCGTCG,-0.0688
18,GTTGCCGA,0.0843
19,GACCGAGA,0.229
20,AACCTCGC,-0.147
21,CCCTCCAG,-0.281
22,CGTGCCAG,-0.145
23,AAGGTGAT,0.0343
24,AGGCAGCA,-0.169
25,CCTTAGAC,-0.132

row,Sequence,PBM E-score
1,ACCACAAA,0.148
2,CCGACGAC,0.12
3,AATATAAT,0.193
4,CTCCATTA,0.0218
5,CTGCTGGA,-0.292
6,CCATGACA,-0.152
7,CAGTATCG,0.00749
8,ACAAGCCA,-0.0804
9,ACCTATTA,0.114
10,ATAAACTC,0.315
11,CGGCAAGC,-0.0429
12,CCGCACAG,-0.0894
13,ATTCATAA,0.127
14,AGGCAATG,-0.0382
15,CTCGTGCC,-0.209
16,CCCTGGCG,-0.282
17,ATATCCTC,0.0549
18,CTATATCC,0.0772
19,GACCTTAA,-0.0227
20,AGGGTGAC,-0.177
21,CAACTTGG,-0.0845
22,AGGGTGAG,-0.191
23,AGAGTACT,-0.0898
24,CGACATTC,-0.0101
25,AACTGAAT,-0.184

row,Sequence,PBM E-score
1,GCCTCCCC,-0.329
2,CTCGTCGA,-0.0555
3,GCAGACGC,-0.0272
4,AAGGGGTC,-0.325
5,GAGGTACA,-0.174
6,CTATTCGC,-0.124
7,GTAATCAA,0.0731
8,AACTATCT,0.0634
9,CCCCCTGC,-0.335
10,AGTCCTGC,-0.19
11,CTGAGCAC,-0.148
12,AGTTTAGA,0.267
13,ACAGATCC,0.197
14,ACAAGTCG,-0.264
15,CCTATAAG,-0.0978
16,AGGTGGAA,0.0437
17,AAACACGT,0.116
18,AATCAATT,0.259
19,AGCTAGCG,-0.184
20,ATACGTCC,0.0728
21,AGGCACTA,-0.174
22,AGGATACC,-0.0483
